{"source": "PubChem BioAssay AID588342", "about": "(National Center for Advancing Translational Sciences (NCATS), 2011)", "note": "The campaign covered roughly 360,000 compounds. About 25,000 (6.9%) were called active. Inconclusive results, whose numbers are uncertain, are shown with a selection of clear calls. Calls come from the whole dose curve; as a rule, active = well fitted inhibition curve with a large enough effect; inconclusive = small, poorly fitted or top-dose-only effect; inactive = flat fitted curve, though single readings scatter. Potencies of inconclusive entries are doubtful fits and often do not repeat. Potency is the fitted concentration of half-maximal effect; tags give direction and shape of the fitted curve.", "data": [{"biological_target": "Luciferin 4-monooxygenase (Photinus pyralis) (UniProt P08659)", "sequence (P08659 whole entry, looked up)": "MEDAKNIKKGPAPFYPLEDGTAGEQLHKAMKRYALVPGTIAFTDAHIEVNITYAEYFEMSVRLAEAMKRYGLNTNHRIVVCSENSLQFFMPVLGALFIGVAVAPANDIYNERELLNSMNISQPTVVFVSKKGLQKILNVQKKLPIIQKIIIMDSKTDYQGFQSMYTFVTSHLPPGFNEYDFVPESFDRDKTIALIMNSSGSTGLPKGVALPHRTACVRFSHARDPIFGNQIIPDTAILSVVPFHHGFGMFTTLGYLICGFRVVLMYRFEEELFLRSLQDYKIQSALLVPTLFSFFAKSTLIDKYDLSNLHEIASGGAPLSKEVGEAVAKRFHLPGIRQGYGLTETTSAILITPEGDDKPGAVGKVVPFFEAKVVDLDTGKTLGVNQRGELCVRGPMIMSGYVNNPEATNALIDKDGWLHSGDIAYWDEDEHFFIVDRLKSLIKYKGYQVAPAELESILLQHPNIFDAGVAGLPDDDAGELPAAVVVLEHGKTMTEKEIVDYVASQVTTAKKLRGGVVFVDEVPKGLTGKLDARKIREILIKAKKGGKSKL", "test": "qHTS profiling assay for firefly luciferase inhibitor/activator using purifed enzyme and Km concentrations of substrates (counterscreen for miR-21 project); note: nearly all actives have a fitted effect of over 55% in size;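 for activity change, negative = inhibition: plate controls were vehicle for no effect and reference inhibitor for full effect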", "conditions": "purified FLuc, luminescence inhibition; activity change, negative = inhibition: at 57.5 µM (top of the series)", "how_it_was_run": "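Purified P. pyralis luciferase (10nM final) with 10uM D-luciferin and 10uM ATP (Km levels) in 50mM Tris acetate pH 7.5, 10mM Mg acetate, 0.01% Tween-20, 0.05% BSA; qHTS 6-point titration, ~60 µM downward; luminescence read.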", "values": [{"smiles": "O=C(/C=C/c1ccccc1Cl)Nc1cccnc1", "Potency": "active: 1.35 µM"}, {"smiles": "CSc1nsc(SCC(=O)Nc2ccc3c(c2)OCCO3)n1", "Potency": "active: 21.3 µM"}, {"smiles": "Cc1cc(CN(C)C(=O)c2cc(COc3ccc(F)cc3Cl)on2)n[nH]1", "Potency": "active: 16.9 µM"}, {"smiles": "Cc1oc(C)c2c(=O)cc(-c3ccc4c(c3)OCO4)cc(OC(=O)c3cccc(Br)c3)c12", "activity change, negative = inhibition": "inactive: -12.1%"}, {"smiles": "COc1cccc(CCNC(=O)c2cccc(NC(=O)C3=C(C)OCCS3)c2)c1", "Potency": "inconclusive: 26.9 µM [inhibitor, partial curve, poor fit]"}, {"smiles": "CCOC(=O)c1ccc(-c2ccc3c(c2)CCC3)nc1C", "Potency": "active: 1.51 µM"}, {"smiles": "C=CCn1cccc(C(=O)Nc2cc(OC)ccc2OC)c1=O", "activity change, negative = inhibition": "inactive: -5.38%"}, {"smiles": "Cc1ccccc1NC(=O)C(C)Sc1nnc(-c2ccncc2)n1CC1CCCO1", "note": "(stereo unspecified)", "activity change, negative = inhibition": "inactive: 2.49%"}, {"smiles": "O=C(O)c1cc(-c2ccco2)nn1-c1ccc(Cl)cc1", "Potency": "inconclusive: 37.9 µM [inhibitor, single point]"}, {"smiles": "COc1cccc(/C=C2\\SC(=S)N(CCC(=O)Nc3ccc(O)cc3)C2=O)c1", "Potency": "inconclusive: 6.01 µM [inhibitor, partial curve]"}, {"smiles": "CCOC(=O)c1sc(=S)n(-c2cccc(OC)c2)c1N", "Potency": "inconclusive: 26.9 µM [inhibitor, partial curve, poor fit]"}, {"smiles": "Cc1cccc(Nc2nc(CC(=O)O)cs2)c1", "Potency": "inconclusive: 26.9 µM [inhibitor, single point]"}, {"smiles": "CC(C)CC(N=Cc1c(O)c2ccccc2oc1=O)C(=O)O", "note": "(stereo unspecified)", "Potency": "inconclusive: 37.9 µM [inhibitor, partial curve, poor fit]"}, {"smiles": "COC(=O)c1c(NC(=O)c2ccoc2C)sc(C)c1C", "activity change, negative = inhibition": "inactive: 1.76%"}, {"smiles": "Nn1c(SCc2cccc(C(F)(F)F)c2)nnc1-c1ccco1", "activity change, negative = inhibition": "inactive: 1.09%"}, {"smiles": "O=C(Nc1nnc(SCc2ccccc2)s1)c1cc2c(s1)CCCC2", "Potency": "inconclusive: 26.9 µM [inhibitor, single point]"}, {"smiles": "O=C(O)CCCC(=O)Nc1cccc(C(=O)Nc2ccccc2C(=O)O)c1", "Potency": "inconclusive: 33.8 µM [inhibitor, single point]"}, {"smiles": "Oc1ccc(-c2nc3ncccn3c2Nc2ccc3c(c2)OCO3)cc1", "Potency": "inconclusive: 23.9 µM [inhibitor, partial curve, poor fit]"}, {"smiles": "Cc1cc(C)cc(NC(=O)C(=O)NCC(c2cccnc2)N2CCc3ccccc3C2)c1", "note": "(stereo unspecified)", "activity change, negative = inhibition": "inactive: -2.33%"}, {"smiles": "N/C(=N\\OC(=O)c1csnn1)c1ccc(C(F)(F)F)cc1", "Potency": "active: 19 µM"}, {"smiles": "Cc1ccc(CNC(=O)C2CCCCN2S(=O)(=O)c2ccccc2)cc1", "note": "(stereo unspecified)", "activity change, negative = inhibition": "inactive: 3.82%"}, {"smiles": "CCn1c(SCc2ccc(C(=O)Nc3nccs3)cc2)nnc1-c1ccc(N)cc1", "Potency": "active: 16.9 µM"}, {"smiles": "Cc1nc(SCC(=O)Nc2nc3ccccc3s2)n[nH]1", "Potency": "inconclusive: 23.9 µM [inhibitor, single point]"}, {"smiles": "O=C(Nc1ccc(Nc2ccccc2)cc1)C(Cl)(Cl)Cl", "Potency": "inconclusive: 6.75 µM [inhibitor, single point]"}, {"smiles": "Cc1ccc(C(=O)Nc2nc(C)c(C(=O)N(C)C)s2)o1", "Potency": "inconclusive: 15.1 µM [inhibitor, partial curve]"}, {"smiles": "COc1cc2oc(=O)c(CC(=O)NCCc3ccccc3F)c(C)c2cc1OC", "activity change, negative = inhibition": "inactive: 2.18%"}, {"smiles": "COC(=O)c1nc2cc3c(cc2c(C)c1C(=O)OC)OCO3", "Potency": "inconclusive: 30.1 µM [inhibitor, single point]"}, {"smiles": "O=C(NCc1cccs1)c1nn(-c2ccccc2F)nc1CO", "activity change, negative = inhibition": "inactive: 5.6%"}, {"smiles": "CC1CC(C)(C)NC(=S)N1CC(=O)NCc1ccc2c(c1)OCO2", "note": "(stereo unspecified)", "activity change, negative = inhibition": "inactive: -2.11%"}, {"smiles": "CCOc1ccc2nc(SCC)[nH]c2c1", "Potency": "active: 19 µM"}, {"smiles": "COc1ccc(Cl)cc1C(=O)NC1=NCCS1", "Potency": "inconclusive: 23.9 µM [inhibitor, partial curve, poor fit]"}, {"smiles": "Cc1ccc(SC[C@H](CC(C)C)N2CCN(C)CCC2=O)cc1", "Potency": "active: 15.1 µM"}, {"smiles": "COc1c(O)ccc2c1CN1CCc3cc4c(cc3C1C2)OCO4", "note": "(stereo unspecified)", "Potency": "inconclusive: 16.9 µM [inhibitor, partial curve]"}, {"smiles": "Cc1cc(C(=O)COC(=O)CC2Sc3ccccc3NC2=O)c(C)n1-c1cccc(C(F)(F)F)c1", "note": "(stereo unspecified)", "Potency": "inconclusive: 23.9 µM [inhibitor, partial curve, poor fit]"}, {"smiles": "Nc1cccc(NC(=O)c2cccs2)c1", "activity change, negative = inhibition": "inactive: -15.6%"}, {"smiles": "O=C(CN1C(=O)C(=O)N(Cc2ccco2)C1=O)NC1CCCCC1", "activity change, negative = inhibition": "inactive: -5.51%"}, {"smiles": "CN(C)/C=C/C(=O)c1cnc(-c2ccc(Cl)cc2)s1", "Potency": "active: 2.69 µM"}, {"smiles": "COc1cccc(C(=O)Nc2ccc(C(=O)c3ccncc3)cc2)c1", "Potency": "inconclusive: 26.9 µM [inhibitor, partial curve, poor fit]"}, {"smiles": "Nc1ccc(-c2nc3ncccc3o2)c(Cl)c1", "Potency": "active: 4.78 µM"}, {"smiles": "COC(=O)CSc1nc2sc3c(c2c(=O)n1Cc1ccccc1)CCC(C(C)(C)C)C3", "note": "(stereo unspecified)", "activity change, negative = inhibition": "inactive: -0.586%"}, {"smiles": "COCCn1c(C)cc(C(=O)CSc2nncn2-c2ccccc2)c1C", "Potency": "active: 19 µM"}, {"smiles": "c1ccc(-c2nc3ccccc3[nH]2)cc1", "Potency": "active: 7.57 µM"}, {"smiles": "C/C(=N\\OCC(=O)NC12CC3CC(CC(C3)C1)C2)c1cc2ccccc2o1", "Potency": "inconclusive: 33.8 µM [inhibitor, partial curve, poor fit]"}, {"smiles": "O=C(c1ccco1)N1CCN(c2nc(C(F)(F)F)nc3c2nnn3Cc2ccccc2)CC1", "activity change, negative = inhibition": "inactive: 0.201%"}, {"smiles": "CCc1ccc(C(=O)OCC(=O)NC2CCCC2)cc1", "Potency": "inconclusive: 23.9 µM [inhibitor, partial curve]"}, {"smiles": "COC(=O)c1ccc(COc2ccc(-c3nn[nH]n3)cc2)cc1", "Potency": "inconclusive: 21.3 µM [inhibitor, single point]"}, {"smiles": "O=C(CNS(=O)(=O)c1ccc(Br)s1)Nc1ccc2c(c1)OCCO2", "Potency": "inconclusive: 26.9 µM [inhibitor, partial curve, poor fit]"}, {"smiles": "O=c1oc2ccccc2cc1-c1ccc(O)cc1O", "Potency": "inconclusive: 37.9 µM [inhibitor, single point]"}, {"smiles": "Cc1ccc(NC(=O)c2ncc(Cl)c(Cl)c2Cl)cc1C", "activity change, negative = inhibition": "inactive: -15%"}, {"smiles": "CCc1nnc2c3ccccc3nc(Nc3ccc(F)c(Cl)c3)n12", "activity change, negative = inhibition": "inactive: -2.35%"}, {"smiles": "O=C1C2CC=C(Cl)CC2C(=O)N1CCc1c[nH]c2ccccc12", "note": "(stereo unspecified)", "Potency": "inconclusive: 37.9 µM [inhibitor, partial curve, poor fit]"}]}]}
